US20230012428A1 (JIANGSU HENGRUI MEDICINE, published 2023)

B1: TTI-621 (Fc fusion)
chain: not shown
notes: Control protein
B2: S58-Fc (Fc fusion)
chain: EEELQMIQPEKLLLVTVGETATLHCTVTSLLPVGPVLWFRGVGPGRELIYMSGRGHFPRVTTVSDLTKRNNMDFSIRISSITPADVGTYYCVKFRKGSPEDVEFKSGPGTEMALGAKPS[human IgG4 Fc with S228P (EU numbers) not given here]
notes: also called SIRPγ protein S58-Fc
B3: S37-Fc (Fc fusion)
chain: B2 chain with M72K

Key:
[1] = target: T1, Human CD47-his (CD47-ECD-His) (human, UniProt Q08722 fragment, limits assumed); assay: ELISA, CD47-his coated on plate
T1 construct: also called hCD47; free human CD47 protein

[2] = target: T2, Cyno CD47-his (cyno, UniProt A0A2K5X523 19-139); assay: ELISA, CD47-his coated on plate
T2 construct: extracellular domain; not shown: His tag

[3] = target: T1, Human CD47-his (CD47-ECD-His); assay: SPR (Biacore T200), binder captured on Protein A chip, antigen in flow
T1 sequence (Q08722 19-139 limits assumed): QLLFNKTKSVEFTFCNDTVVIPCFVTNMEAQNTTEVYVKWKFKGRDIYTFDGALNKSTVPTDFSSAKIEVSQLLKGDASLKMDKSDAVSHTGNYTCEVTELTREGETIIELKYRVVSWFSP

[4] = target: T2, Cyno CD47-his; assay: as above
[5] = target: T1, Human CD47-his (CD47-ECD-His); assay: ELISA, CD47-his coated on plate; remark: listed apart in the source
[6] = target: T2, Cyno CD47-his; assay: ELISA, CD47-his coated on plate; remark: listed apart in the source

Binder | EC50 [1] [µg/mL] | EC50 [2] [µg/mL] | Kd [3] [nM] | Kd [4] [nM] | EC50 [5] [µg/mL] | EC50 [6] [µg/mL]
B1 | 0.0302 | 0.293 | 4.15 | 10.4 |  | 
B2 | 0.0248 | 0.0154 | 0.551 | 0.974 | 0.0255 | 0.012
B3 |  |  | 0.524 | 0.893 | 0.0228 | 0.0114

Substitutions are numbered along the chain they refer to. Read-outs that look alike come from different tables or passages of the source.
